Source: ChEMBL document CHEMBL4888484, “Replenishing the malaria drug discovery pipeline: Screening and hit evaluation of the MMV Hit Generation Library 1 (HGL1) against asexual blood stage Plasmodium falciparum ,using a nano luciferase reporter read-out” (2022)
Hit rate of the full screen: of about 150,000 compounds, about 540 (0.36%) showed an effect of 50% or more. The list shows a part of the results.

These compounds were tested on Plasmodium falciparum (assay: Primary screen in NF54 nanoGlo assay, in single point, at 2uM, 72h; a lower Z score goes with more inhibition). Settings: timepoint 72 hour.
Type: functional, Erythrocyte

| Compound | % Inhibition | Z score |
| --- | --- | --- |
| CC(c1nc(C2CC2)no1)N1CCOC(c2ccccc2)C1 (stereo not given) | 4% | -0.66 |
| O=C(Nc1ccc2ncccc2c1)N1CCN(Cc2ccco2)[C@@H](CCO)C1 | 10% | -1.32 |
| Cn1cc(S(=O)(=O)N2CCCCC2)cc1C(=O)NCc1ccc2c(c1)OCO2 | 3% | -0.41 |
| COc1nsc(OC)c1CNC(=O)C1(C)CC2CCC1C2 (stereo not given) | -8% | 1.74 |
| CCC(CC)n1nc(C)cc1C(=O)N(C)c1ccn(C)n1 | 2% | -0.21 |
| CCOC(C)c1nc(C)c(C(=O)NC(CC)c2ccccc2O)s1 (stereo not given) | -4% | 0.55 |
| CCC(NC(=O)Cn1cc(C)cn1)[C@H]1C[C@H](O)C1 (stereo not given in full) | -15% | 1.43 |
| CCS(=O)(=O)N1CC(=O)N(c2cccc(C)c2C)[C@](C)(C(=O)NC2CCCCCCC2)C1 | -17% | 2.17 |
| CC(=O)N[C@H]1C[C@@H](c2cc(F)cc(F)c2)O[C@@H](c2ccc(O)c(Cl)c2)C1 | 2% | -0.27 |
| Cc1ccoc1C(=O)NC[C@H]1CN(C)C(=O)CO1 | -7% | 0.84 |
| O=C(Nc1ccc(F)cc1F)c1cccn2c(-c3ccc(F)cc3)nnc12 | -7% | 1.08 |
| C[C@H](NC(=O)c1c(F)ccc(C(F)(F)F)c1Br)c1csnn1 | -4% | 0.8 |
| O=C(Nc1ccccc1OCC1CC1)c1cn[nH]c1 | -5% | 0.68 |
| O=C(CN1CCN(Cc2nc3c(s2)CCCC3)CC1)Nc1ccccc1F | -3% | 0.4 |
| Cc1cc(Br)ccc1C(=O)NC[C@H](C)O | -7% | 0.78 |
| COc1cccc(Cn2c(=O)c(C(=O)Nc3ccc(F)cc3)nn(-c3cccc(OC)c3)c2=O)c1 | -9% | 0.89 |
| COc1ccc(F)cc1C(NC(=O)CCCn1cnnn1)[C@H]1C[C@H](O)C1 (stereo not given in full) | -12% | 1.45 |
| COc1cc2c(cc1OC)CN1C(=O)N(CCC(=O)Nc3cccc(Cl)c3)C(=O)[C@@H]1C2 | -1% | 0.09 |
| Clc1ccccc1COc1ccccc1-c1nc2c([nH]1)CCNC2 | -5% | 0.93 |
| CC1(C)CCN(CCNC(=O)Cc2ccc(-n3ccnc3)cc2)C1 | -2% | 0.21 |
| Cc1c(Cl)cccc1S(=O)(=O)N1CCC[C@H](c2ccn(C)n2)C1 | -7% | 0.77 |
| Nc1cc(-c2cccc(C(=O)NCCCN3CCCC3=O)c2)nc(N)n1 | -11% | 1.35 |

| Compound | % Inhibition | Z score |
| --- | --- | --- |
| CCN(CC)c1ncnc2c(-c3ccccc3)cn(CC(=O)N3CCCCC3)c12 | 15% | -2.25 |
| O=C(c1ccccc1)[C@H]1CCCN(C(=O)CCn2nnc3ccccc32)C1 | 0% | -0.02 |
| CCC(CC)[C@H]1CCN(S(=O)(=O)CC2CCOCC2)C1 | 10% | -1.12 |
| COc1c(C)cnc(Cn2cc(C#N)cn2)c1C | -1% | 0.15 |
| CCc1nc(C)c(C(=O)NCc2cnc3c(c2)CCC3)o1 | -8% | 1 |
| CNC(=O)c1ccc(CN2CCC[C@@](CO)(CC3CC3)C2)o1 | -21% | 2.07 |
| CCOc1cncc(NCCn2ccnc2)n1 | 25% | -2.8 |
| CCCCCNC(=O)Nc1nnc(C)s1 | 0% | 0.09 |
| Cc1cc(C)cc(N2C(=O)C3N=NN(c4ccc(F)cc4)C3C2=O)c1 (stereo not given) | 8% | -0.91 |
| Cc1cc(O)cc(=O)n1C[C@H](O)c1ccc(O)cc1 | -3% | 0.42 |
| CC(C)c1[nH]ccc1C(=O)N1CC(O)(C(F)F)C1 | -2% | 0.35 |
| COCCCNC(=O)c1c(C)oc2c1CN(Cc1cccc(F)c1)CC2 | -6% | 0.56 |
| CC(=O)N1CCc2cc(S(=O)(=O)N3CCCC3)ccc21 | -13% | 2.38 |
| COc1cncc(C(Nc2nc3cc(C)ccc3o2)[C@H]2C[C@@H](O)C2)c1 (stereo not given in full) | -8% | 1.51 |
| O=C(c1ccc[nH]1)N(CCCn1ccnc1)Cc1cccnc1 | -7% | 0.94 |
| COc1cccc(-c2nn(-c3nc(-c4ccco4)cc(C(F)(F)F)n3)c(-c3cccc(OC)c3)c2C)c1 | -3% | 0.42 |
| Cc1nc(-c2cc(NCc3ccccn3)nc3[nH]ccc23)cc(C(C)C)n1 | -3% | 0.33 |
| COc1ccc(-c2cnnn2-c2cc(OC)c3c(c2OC)OCO3)cc1 | -4% | 0.65 |
| NC(=O)C1(O)CCN(C(=O)c2cc(-c3ccccc3)ccc2Cl)CC1 | 0% | -0.04 |
| Cc1cncc(NC(=O)C(=O)NC[C@@H]2CCCN2CC(C)C)c1 | -11% | 1.78 |
| CC[C@H](OC1CCCC1)C(=O)NCCC1CCN(C)CC1 | -11% | 2.02 |
| CC(C)(O)C#Cc1ccc(CN2CCN(Cc3ccsc3)[C@@H](CCO)C2)s1 | -10% | 1.93 |

| Compound | % Inhibition | Z score |
| --- | --- | --- |
| O=C(NCC1(N2CCCCC2)CCOCC1)c1csc(Cl)c1 | -3% | 0.33 |
| CC(C)(O)c1nc2ccccc2n1C[C@H]1CC1(Cl)Cl | 4% | -0.55 |
| CCN(CC(=O)N1CCN(c2ccc(-c3ccc(Cl)cc3Cl)nn2)CC1)C(=O)C1CCC1 | -6% | 0.74 |
| CCN(C)C(=O)CNC(=O)c1sc(-c2c(C)noc2C)nc1C | -10% | 1.32 |
| CCCS(=O)(=O)N1CC[C@H](Cc2ncc(C)n2Cc2ccccc2)C1 | -16% | 1.95 |
| CCN(CC)c1onc(-c2ccccc2)c1CN(CCN1CCOCC1)C(=O)C(C)C | 10% | -1.26 |
| CCCN(CCC)c1ncnc2c1c(-c1ccccc1)cn2-c1ccccc1 | -12% | 1.46 |
| O=C(NCc1ccccc1Cl)c1nc(-c2cn(-c3cccc(F)c3)nn2)no1 | -5% | 1.07 |
| CCCc1ccc(CN2CC[C@](C)(O)[C@H](C)C2)o1 | 1% | -0.12 |
| CC(=O)N1CCN(C(=O)N[C@@H](C)c2ccccc2)CCC12CCOCC2 | -1% | 0.12 |
| CNC(=O)C1CCCC1NC(=O)Nc1ccnnc1C (stereo not given) | -40% | 4.74 |
| COc1ccccc1-c1n[nH]c(C)c1NC(=O)c1c(F)cccc1F | -3% | 0.44 |
| CCN(CC)CCOCCOc1c(C)cccc1C | -5% | 1.02 |
| Cc1noc(C)c1CC(=O)Nc1cccc(-c2ccc3c(c2)CCO3)n1 | -12% | 2.26 |
| Cc1nccn1CCN(C)C(=O)[C@@H]1COc2ccccc2C1 | 1% | -0.17 |
| N#C[C@@H]1C(=O)N=C(N2CCc3ccccc3C2)NC12CCCC2 | -5% | 0.6 |
| CN(C)C1(CNC(=O)c2ccccc2)CCCC1 | -4% | 0.4 |
| Cc1ccc(CN[C@@H]2CO[C@H](CNC(=O)c3ccccc3)[C@H]2O)cc1 | -10% | 1.54 |
| O=C(O)c1cccc(OCCN2CCCCC(C3CCOC3)C2)c1 (stereo not given) | -14% | 2.55 |
| Cn1nc(C(=O)N2CCN(c3nccn4nc5c(c34)CCCC5)CC2)ccc1=O | -10% | 2.06 |
| CC[C@@H](C(=O)N1CCC(Cc2ccccc2)CC1)N1CCN(Cc2ccc(F)cc2)C(=O)C1=O | 1% | -0.1 |
| Cc1cc(C(=O)N2CCCCC[C@H]2c2cc(C(F)(F)F)nn2C)on1 | -14% | 1.2 |

| Compound | % Inhibition | Z score |
| --- | --- | --- |
| COCCn1c([C@H](C)NC(=O)c2cc(F)ccc2-n2cnnn2)nc2ccccc21 | 3% | -0.38 |
| CC(C)NC(=O)N[C@H]1C[C@@H](Cc2cc(-c3ccccc3)on2)C1(C)C | -7% | 1.16 |
| CC(CNC(=O)N1C[C@@H](O)C[C@H]1CO)c1c(Cl)cccc1Cl (stereo not given in full) | -5% | 0.69 |
| OC[C@H]1CCCCN1CCNCc1ccc(F)cc1F | -15% | 1.56 |
| Cc1ccc(C(=O)N[C@@H]2COC3(CCCC3)C2)c(=O)[nH]1 | -11% | 0.99 |
| CCOC(=O)C1(Cc2ccc(Cl)cc2)CCN(Cc2[nH]cnc2C)CC1 | -1% | 0.12 |
| O=C(Nn1c(-c2ccccc2)nc2ccccc2c1=O)c1ccco1 | -18% | 2.64 |
| O=C(NCc1ccc(OC(F)F)cc1)C1CC2CCC1C2 (stereo not given) | -3% | 0.6 |
| CC(C)[C@H]1CCO[C@H]1C(=O)NCc1cccc(-c2ncc[nH]2)c1 | -13% | 2.05 |
| O=S(=O)(NCCCc1nnc2ccccn12)N1CCCCC1 | 10% | -1.35 |
| CO[C@@H](C)C(=O)N1CCC2(CCC(=O)N(CCc3c[nH]cn3)C2)CC1 | -2% | 0.34 |
| CCc1ccc(-c2n[nH]c(=O)c3c2CCCC3)cc1S(=O)(=O)N1CCN(Cc2ccccc2)CC1 | 7% | -0.87 |
| O=C(N1CCOCC1)N1CCCN(c2cccc(F)c2F)CC1 | -10% | 1.46 |
| CC(C)c1cc(C(=O)N2CCC3CCCCC32)nn1C (stereo not given) | -4% | 0.57 |
| O=C(NCCCc1cnc2ncnn2c1)c1ccoc1 | -5% | 0.96 |
| NC1CCC(C(=O)N2CCOC(c3cc(F)c(Cl)cc3Cl)C2)C1 (stereo not given) | -18% | 2.47 |
| CC(C)(C)N(Cc1ccccn1)C(=O)c1ccc(F)cn1 | -11% | 1.46 |
| CCOc1cccc(CNC(=O)c2cn3c(n2)CN(CC)CC3)c1 | -2% | 0.33 |
| Cc1csc(NC(=O)c2ccc(-n3cccn3)nn2)n1 | -5% | 1.01 |
